The campaign covered roughly 120,000 compounds. About 5,300 (4.4%) were called active. The shares of active, inactive and inconclusive entries below differ from those in the screen. The call rests on the fitted dose curve; in most records, active means well fitted inhibition curve with a large enough effect; inconclusive means small, poorly fitted or top-dose-only effect; inactive means no such curve, though single readings can be large or run the other way. Where the call is inconclusive, the potency comes from a doubtful curve fit.
Experiment: qHTS Primary assay for Inhibitors of Plasmodium falciparum Dd2 growth in vitro; further: nearly all actives have a fitted effect of over 65% in size;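 on activity, negative = inhibition: plate controls were DMSO vehicle for no effect and reference drug for full effect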
Conditions: P. falciparum Dd2 growth, SYBR Green, 72 h; activity, negative = inhibition: at 28.9 µM (top of the series) unless noted; series mostly up to 28.9 µM
Summary of the method: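 Infected erythrocytes (Dd2, 0.3% parasitemia, 2.5% hematocrit final) are added to compound in RPMI-1640/Albumax II medium, grown 72 h at 37C in low oxygen, then lysed with saponin/Triton-X containing SYBR Green and read by fluorescence.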
For `Cc1c(-c2cc(C(=O)N[C@@H]3CCOC[C@H]3OCC(=O)O)no2)cnn1C`, the “activity, negative = inhibition” value was inactive: 5.36%. In the case of `Cc1n[nH]c(C)c1CNC(=O)C12CCCC=C1N(Cc1ccccc1)C(=O)CC2` (stereo unspecified), the “activity, negative = inhibition” value is reported as inactive: -11.4%. With `Cc1ccccc1OCC(=O)Nc1ccc2nc(SCC(N)=O)sc2c1` the Potency was inconclusive: 10 µM [inhibitor, single point]. In the case of `COCCN1C(=O)c2ccccc2C(C(=O)Nc2nc(C)c(C)s2)C12CCCC2` (stereo unspecified), the Potency is reported as active: 7.94 µM. With `CCN(CC)c1cc(CCC(=O)NCCOC)ccn1` the “activity, negative = inhibition” value was inactive: 2.91%. For `O=C(NCCn1ccnc1-c1cc2n(n1)CCCNC2)c1ccncc1`, the Potency was inconclusive: 17.8 µM [inhibitor, single point]. With `COc1ccc(-c2cc(-c3cccnc3)cn3cncc23)cc1` the Potency was inconclusive: 5.62 µM [inhibitor, single point]. For `COc1cc(Cl)c(C)cc1NC(=O)CCc1nc2cccnc2n1Cc1cccs1`, the Potency was inconclusive: 11.2 µM [inhibitor, single point]. For `COCCOc1ccc2c(n1)CCN(C(=O)c1ccsc1)C2`, the Potency was inconclusive: 4.47 µM [inhibitor, partial curve, poor fit]. For `Cn1c(Cn2cncn2)nnc1C1CCN(Cc2ccc3ccccc3n2)CC1`, the “activity, negative = inhibition” value was inactive: -22.6%. With `Cc1ccccc1CCC1CCCNC1` (stereo unspecified) the Potency was active: 11.2 µM. For `COc1ccccc1CCc1nc(-c2nnn3c2COC(c2ccc(C)cc2)C3)no1` (stereo unspecified), the Potency was inconclusive: 7.94 µM [inhibitor, single point]. For `Cc1nc(C2CC(O)C2)cc(N(C)Cc2ccccc2-n2cccn2)n1` (stereo unspecified), the “activity, negative = inhibition” value was inactive: -20.3%. For `O=C(NCc1ccc2c(c1)OCO2)C1CCN(c2cc(C(F)(F)F)ncn2)CC1`, the Potency was inconclusive: 8.91 µM [inhibitor, single point]. For `Cc1ccc(-n2c(=O)c3c4c(sc3n(CC(=O)Nc3cccc(Cl)c3)c2=O)CCCCC4)cc1C`, the Potency was inconclusive: 17.8 µM [inhibitor, single point]. With `O=C(c1ccc(C(F)(F)F)cc1)N1CCC(N2CC3CCCN3C2=O)CC1` (stereo unspecified) the “activity, negative = inhibition” value was inactive: -6.63%. With `CC(=O)NC1(C)CCN(Cc2cccc(Nc3cccc(Cl)c3)c2)C1` (stereo unspecified) the Potency was inconclusive: 3.98 µM [inhibitor, partial curve, poor fit]. In the case of `C=C[C@H]1CN2CC[C@H]1C[C@@H]2CNCc1ccc2c(c1)OCO2`, the Potency is reported as inconclusive: 10 µM [inhibitor, partial curve, poor fit]. For `COc1cccc(CN2CCOC[C@H](Oc3ccccc3)C2)c1`, the Potency was inconclusive: 10 µM [inhibitor, partial curve, poor fit]. With `CN(Cc1ccccc1)C(=O)CCS(=O)(=O)c1ccc2c(c1)oc(=O)n2C` the “activity, negative = inhibition” value was inactive: 66.5%. For `CCn1cc(S(=O)(=O)c2cccc(Cl)c2)c(=O)c2cc(F)c(N3CCN(C)CC3)cc21`, the Potency was inconclusive: 17.8 µM [inhibitor, single point]. In the case of `COc1ccc(C2=NOC3(CCN(C(=O)c4ccc5c(c4)OCO5)C3)C2)cc1` (stereo unspecified), the Potency is reported as inconclusive: 0.891 µM [inhibitor, partial curve, poor fit]. In the case of `COc1ccc(OC2CN(Cc3cccn3C)C2)cc1`, the Potency is reported as inconclusive: 25.1 µM [inhibitor, single point]. In the case of `Cc1cc(-c2cc3c(cn2)CN(Cc2cccc(F)c2)CCN3)ccn1`, the “outcome” value is reported as “inactive [at 44.1 µM]”. With `CCCN1C(CC(C)C)=NS(=O)(=O)c2cc(NC(=O)c3ccccc3Cl)ccc21` the Potency was inconclusive: 1.58 µM [inhibitor, full curve, poor fit]. In the case of `Cc1ccccc1OCCCCn1c(CCNC(=O)C(C)(C)C)nc2ccccc21`, the Potency is reported as inconclusive: 14.1 µM [inhibitor, single point]. For `COc1ccc(OC)c(CNC(=O)c2ccc(NC(=O)c3nsc4ccccc34)cc2)c1`, the “activity, negative = inhibition” value was inactive: -18.7%. In the case of `NC(=O)c1cccc(CN2CCCC23Cc2ccccc2N(C(=O)c2ccc(Cl)cc2)C3)c1` (stereo unspecified), the Potency is reported as inconclusive: 10 µM [inhibitor, single point]. With `CCNC(=O)N[C@H]1CC[C@]2(C)CC[C@@H]([C@H](C)C(=O)NCc3ccccc3)[C@H](O)[C@H]2[C@@H]1C` the “activity, negative = inhibition” value was inactive: 16.8% [at 44.1 µM]. In the case of `COc1ccc(NC(=O)C2CCN(S(=O)(=O)c3c(C)noc3/C=C/c3cccs3)CC2)cc1`, the Potency is reported as inconclusive: 8.91 µM [inhibitor, single point]. In the case of `CC(C)N(Cc1ccccc1)C(=O)Cn1ncc2c3ccccc3n(Cc3ccccc3)c2c1=O`, the Potency is reported as inconclusive: 17.8 µM [inhibitor, single point]. For `CC(CN1CC2(CCN(C(=O)c3ccc(=O)n(C)n3)CC2)OC1=O)c1ccccc1` (stereo unspecified), the “activity, negative = inhibition” value was inactive: -16.2%. With `COc1ccc(C(=O)N2CCC3(CC2)C(=NC2CCCCC2)NC(=O)N3c2cccc(OC)c2)cc1` the Potency was inconclusive: 7.94 µM [inhibitor, partial curve]. For `Cc1ccc(C(=O)N2CC(C(=O)NCCc3ccncc3)C3(CCOCC3)C2)cc1F` (stereo unspecified), the “activity, negative = inhibition” value was inactive: 4.2%. For `CCOC(=O)c1ccc(NC(=O)CCCn2c(=O)c3cccn3c3cccnc32)cc1`, the Potency was inconclusive: 8.91 µM [inhibitor, single point]. In the case of `CC(NC(=O)c1cc2n(n1)CC(c1ccc(Cl)cc1)OC2)c1ccc(F)cc1` (stereo unspecified), the Potency is reported as inconclusive: 10 µM [inhibitor, single point]. With `Cc1ccc(CNC(=O)c2ccc3c(c2)CN(Cc2cccc(F)c2F)CCO3)cc1` the “activity, negative = inhibition” value was inactive: -13.6%. With `COCC(=O)N[C@H]1C[C@@H](CO)N(Cc2c[nH]c3ccccc23)C1` the Potency was inconclusive: 10 µM [inhibitor, single point]. With `COc1ccccc1OCC(=O)N1CCC(c2nc3ccccc3o2)CC1` the “activity, negative = inhibition” value was inactive: 0.545%. In the case of `Cc1ccc(-n2ncc(C(=O)NC3CCCCC3)c2C2CCN(C(=O)OC(C)(C)C)CC2)cc1`, the Potency is reported as inconclusive: 4.47 µM [inhibitor, partial curve]. In the case of `CC(=O)N1CCC(C(=O)NCC(=O)N2CCCCCCNC(=O)CC2c2ccccc2)CC1` (stereo unspecified), the “activity, negative = inhibition” value is reported as inactive: 28.6%. With `CN1CCC(NC(=O)c2ccc3c(c2)N(S(=O)(=O)c2ccccc2F)CC3)CC1` the Potency was inconclusive: 5.01 µM [inhibitor, partial curve, poor fit]. With `Cc1ccc(NC(=O)Nc2cn(CC(C)C)c(=O)c3ccccc23)cc1N(C)C` the Potency was inconclusive: 11.2 µM [inhibitor, single point]. For `COc1ccc(-c2cc(C(C)=O)c(C)n2CCC(=O)NCc2ccc(C)cc2)cc1`, the Potency was inconclusive: 17.8 µM [inhibitor, single point]. In the case of `COc1cccc(CNC(=O)C2CCN(C(=O)c3cnn(-c4ccccc4)c3-n3cccc3)CC2)c1`, the Potency is reported as inconclusive: 17.8 µM [inhibitor, single point]. In the case of `NCC(=O)N[C@H]1CN(c2nccc(C(F)(F)F)n2)C[C@@H]1C1CC1`, the Potency is reported as inconclusive: 10 µM [inhibitor, partial curve, poor fit]. In the case of `CCOC(=O)c1cc(S(=O)(=O)N2CCN(c3cccc(C)c3C)CC2)[nH]n1`, the Potency is reported as inconclusive: 5.01 µM [inhibitor, single point]. For `Cc1cc(=O)n(CC(=O)Nc2ccc(Cl)cc2)c(N2CCC(C)CC2)n1`, the Potency was active: 11.2 µM. For `O=C(c1ncccc1O)N1CCCC(CCc2cccc(C(F)(F)F)c2)C1` (stereo unspecified), the Potency was inconclusive: 12.6 µM [inhibitor, partial curve, poor fit]. With `COc1nc2nc(CC3CC3)n(C)c2cc1-c1ccc(N2CCOCC2)cc1` the Potency was inconclusive: 10 µM [inhibitor, partial curve, poor fit]. For `O=[S+]1([O-])CCCN1C1CCN(Cc2ccc(C(F)(F)F)cc2)CC1`, the “outcome” value was “inactive”. For `O=C1NC(=NC2CCCCC2)C2(CCCN(CC3CCCCC3)C2)N1c1cc(F)cc(F)c1` (stereo unspecified), the Potency was active: 7.94 µM. For `Cc1ccoc1C(=O)N1C[C@@H](COCC2CC2)[C@H](c2ccncc2)C1`, the Potency was inconclusive: 1.58 µM [inhibitor, full curve, poor fit]. For `COCCC(=O)N1CCCCCCN(C)C(=O)[C@@H]2CCC[C@@H]21`, the “activity, negative = inhibition” value was inactive: -14.9%. With `O=C(c1ccc2c(c1)N(Cc1cccc(F)c1)C(=O)c1ccccc1S2)N1CCC2(CC1)OCCO2` the Potency was inconclusive: 17.8 µM [inhibitor, single point]. For `Cc1cccn2c(=O)cc(CSc3nnc(NC(=O)COc4ccccc4)s3)nc12`, the Potency was inconclusive: 11.2 µM [inhibitor, single point]. In the case of `O=[S+]1([O-])NC2(CCN(Cc3ccc(Cl)cc3)C2)COc2ncccc21` (stereo unspecified), the Potency is reported as inconclusive: 2.24 µM [inhibitor, single point]. In the case of `COc1ccc(N(C)C(=O)c2cc3c(s2)-c2c(C)cccc2OC3)c(OC)c1`, the Potency is reported as inconclusive: 7.08 µM [inhibitor, partial curve]. In the case of `CC[C@H]1CN(S(=O)(=O)c2c(C)noc2C)CC[C@H]1CC(=O)NCc1cccc2ccccc12`, the Potency is reported as inconclusive: 10 µM [inhibitor, single point]. With `O=C1NCCCCCN(C(=O)C2CCCCC2)[C@H]2CCCC[C@@H]12` the “outcome” value was “inactive”. For `O=C(Cn1ccn2nc3c(c2c1=O)CCCC3)NCCc1ccccc1`, the “outcome” value was “inactive”. In the case of `Cc1ccc(NC(=O)N2CCCN(C(=O)C3CC3)C(c3ccccc3)CC(=O)NCC2)cc1C` (stereo unspecified), the “outcome” value is reported as “inactive”. With `COc1ccc(CC(=O)N2CCC(c3n[nH]c(=O)n3-c3ccc(C)cc3)CC2)cc1` the “activity, negative = inhibition” value was inactive: -12.5%. In the case of `COc1ccc(Nc2nc(Nc3ccc(OC)cc3OC)nc(N3CCOCC3)n2)c(OC)c1`, the Potency is reported as inconclusive: 10 µM [inhibitor, single point]. For `COCCOc1ccnc(-c2noc([C@@H]3CCCN3Cc3ccccc3)n2)c1`, the Potency was inconclusive: 20 µM [inhibitor, partial curve, poor fit]. In the case of `CCOc1ccccc1NC(=O)N1c2ccccc2CC1c1nc(C(C)C)no1` (stereo unspecified), the activity, negative = inhibition is reported as inactive: -4.28% [at 5.79 µM].

Source: PubChem BioAssay AID1347417 (National Center for Advancing Translational Sciences (NCATS), 2020)
Potency means the concentration at half of the fitted maximal effect; tags describe the fitted curve by direction and shape.
